Experimental data: PubChem BioAssay AID651820 (National Center for Advancing Translational Sciences (NCATS), 2012)
The whole screen tested about 340,000 compounds, of which about 12,000 (3.5%) were called active. The shares of active, inactive and inconclusive entries below differ from those in the screen. Calls follow the shape of the dose curve; as a rule, active = well fitted inhibition curve with a large enough effect; inconclusive = small, poorly fitted or top-dose-only effect, or another doubt; inactive = no such curve, though single readings can be large or run the other way. Potencies of inconclusive entries are left out as doubtful fits.

Assay: qHTS Assay for Inhibitors of Hepatitis C Virus (HCV)
Details: Huh7.5.1 HCVcc-Cre (HCVcc is cell-culture hepatitis C virus) infection, luciferase reporter, 44 h; activity change, negative = inhibition: at 41.8 µM (top of the series)
Method in brief: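 Antiviral activity was scored by luciferase reporter output from cells infected with HCVcc-Cre (~0.5 moi) in presence of compound, 44 h infection period, cells seeded 1,000/well 4 h prior.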
% is scaled to controls: 0 for no effect and ±100 for the full control effect; potency is read from the fitted curve at half-maximal effect; tags tell the direction and shape of the fitted curve.

Q: For CCOc1ccc(Nc2ncnc3c2cnn3C)cc1, which “activity change, negative = inhibition” value is on record?
A: Its value is inactive: -9.91%.

Q: Which Potency does the source give for Cc1cc(C)n(CC(O)Cn2c3ccc(Cl)cc3c3cc(Cl)ccc32)c(=O)n1 (centres undefined) here?
A: The Potency was inconclusive [inhibitor, single point].

Q: With Cc1cc2[nH]c(=O)c(=O)[nH]c2cc1S(=O)(=O)N1CCC(C)CC1 as the compound, how does the “activity change, negative = inhibition” value read?
A: Its value is inactive: 9.03%.

Q: Which “activity change, negative = inhibition” value does the source give for CN(C(=O)CSc1ncnc2sc3c(c12)CCC3)C1CCS(=O)(=O)C1 (centres undefined) here?
A: Its value is inactive: -24.3%.

Q: For CCOC(=O)Cc1c(C)nc(Cc2ccc(OC(C)C)cc2)[nH]c1=O, which “activity change, negative = inhibition” value is on record?
A: Its value is inactive: 21%.

Q: With COc1ccccc1CCc1nnc(CCC(=O)N(C)Cc2cccc3ncccc23)o1 as the compound, how does the Potency read?
A: The Potency was inconclusive [inhibitor, single point].

Q: With Cc1ccc(NS(=O)(=O)c2cc(C(=O)NCCSc3ccc(C)cc3)ccc2C)cc1 as the compound, how does the Potency read?
A: The Potency was inconclusive [inhibitor, single point].

Q: Which “activity change, negative = inhibition” value does the source give for Oc1ccc(N2Cc3ccccc3C2)cc1 here?
A: Its value is inactive: 3.74%.

Q: For COc1ccc2ccccc2c1C1CC(=O)N2CN(C3CCCCC3)CSC2=C1C#N (centres undefined), which “activity change, negative = inhibition” value is on record?
A: The value was inactive: 6.44%.

Q: Which Potency does the source give for Cc1c(NC(C)C)c(=O)n(-c2ccccc2)n1C here?
A: Its Potency is active: 0.562 µM.

Q: Which Potency does the source give for CCNC1CCC(Nc2ccnc3cc(Cl)ccc23)CC1 (centres undefined) here?
A: The Potency was active: 12.6 µM.

Q: Which “activity change, negative = inhibition” value does the source give for CCCOc1ccc(C(=O)NNC(=O)CCNC(=O)c2ccco2)cc1OC here?
A: Its value is inactive: 12.7%.

Q: For O=C1[C@H]2[C@@H](/C=C/c3ccccc3)N3C(=O)CN(CCO)C(=O)[C@@]3(Cc3ccccc3)[C@H]2C(=O)N1c1ccccc1, which Potency is on record?
A: The Potency was inconclusive [inhibitor, partial curve, poor fit].

Q: For O=C(CSc1nnc(Nc2ccccc2)s1)NCc1ccco1, which “activity change, negative = inhibition” value is on record?
A: The value was inactive: 3.24%.

Q: Which “activity change, negative = inhibition” value does the source give for CN(C)N1C(N)=C(C#N)C(c2ccc(F)cc2)C2=C1CC(C)(C)CC2=O (centres undefined) here?
A: The value was inactive: 10.7%.

Q: For CN(C)c1ccc(N/C(=N\S(=O)(=O)c2cccs2)c2ccccc2)cc1, which Potency is on record?
A: The Potency was inconclusive [inhibitor, single point].

Q: With COc1cc(CNC2CCCC2)cc(Cl)c1OCc1ccccc1Cl as the compound, how does the Potency read?
A: The Potency was inconclusive [inhibitor, single point].

Q: Which Potency does the source give for CN(C)S(=O)(=O)c1cccc(NC(=O)COC(=O)C2(c3ccccc3F)CCCC2)c1 here?
A: The Potency was inconclusive [inhibitor, single point].

Q: For COc1ccc(OC)c(CCNC(=O)CCn2ccc3cc(S(=O)(=O)N4CCCC4)ccc32)c1, which Potency is on record?
A: Its Potency is inconclusive [inhibitor, single point].

Q: Which “activity change, negative = inhibition” value does the source give for O=C(NC1CCCCC1)C1CC(=O)N(Cc2ccccc2)C1 (centres undefined) here?
A: The value was inactive: 5.55%.

Q: With CCOc1ccc(-c2nnc3ccc(SCC(=O)Nc4nc5ccccc5s4)nn23)cc1 as the compound, how does the Potency read?
A: Its Potency is inconclusive [inhibitor, single point].

Q: With CNC(=O)CSc1nc2cc(S(=O)(=O)Nc3ccccc3OC)ccc2o1 as the compound, how does the “activity change, negative = inhibition” value read?
A: The value was inactive: 15%.

Q: For COc1cccc(-n2c(SCC(=O)Nc3sc4c(c3C(N)=O)CCC4)nc3ccccc3c2=O)c1, which Potency is on record?
A: The Potency was inconclusive [inhibitor, full curve].

Q: Which Potency does the source give for Cc1ccccc1NS(=O)(=O)c1cc(C(=O)Nc2cccnc2)ccc1C here?
A: The Potency was active: 31.6 µM.

Q: Which “activity change, negative = inhibition” value does the source give for Cc1nnc2ccc(-c3ccc(NC(=O)Cc4cccs4)cc3)nn12 here?
A: The value was inactive: -7.02%.

Q: Which Potency does the source give for Cc1oc(-c2ccccc2F)nc1CSCC(=O)NC1CCC(C)CC1 (centres undefined) here?
A: The Potency was inconclusive [inhibitor, partial curve].

Q: With COc1ccc(/C=N/NC(=O)NC23CC4CC(CC(C4)C2)C3)c(OC)c1 as the compound, how does the Potency read?
A: The Potency was inconclusive [inhibitor, single point].

Q: With CCOc1ccc(N(C(=O)c2cnccn2)C(C(=O)NC2CCCCC2)c2ccc(O)cc2)cc1 (centres undefined) as the compound, how does the “activity change, negative = inhibition” value read?
A: The value was inactive: -11.7%.

Q: Which Potency does the source give for COC(=O)CNC(c1ccccc1Cl)c1cc(Br)ccc1NS(=O)(=O)c1ccc(C)cc1 (centres undefined) here?
A: The Potency was inconclusive [inhibitor, single point].

Q: With O=C(N/N=C/c1sc(N2CCCCC2)nc1-c1cccs1)C1CC1 as the compound, how does the Potency read?
A: The Potency was inconclusive [inhibitor, single point].

Q: For CC(=O)c1cccc(NS(=O)(=O)c2ccc(C(=O)Nc3ccccc3)cc2)c1, which Potency is on record?
A: The Potency was active: 4.47 µM.

Q: Which Potency does the source give for CC(NC(=O)C1CCN(S(=O)(=O)c2cccs2)CC1)c1cccc(Cl)c1 (centres undefined) here?
A: Its Potency is inconclusive [inhibitor, partial curve].

Q: Which “activity change, negative = inhibition” value does the source give for CCOc1ccc(CC(C(N)=O)C(N)=O)cc1CN(C)C here?
A: The value was inactive: 5.08%.

Q: With CCn1c(SCC(=O)Nc2ccc(C)cc2)nc2sc3c(c2c1=O)CCN(C)C3 as the compound, how does the Potency read?
A: The Potency was inconclusive [inhibitor, single point].

Q: Which Potency does the source give for COc1cc(NC(=O)c2cc(-c3ccccc3)nc3c2cnn3C(C)C)cc(OC)c1OC here?
A: Its Potency is inconclusive [inhibitor, full curve].

Q: With O=C(CN1CCCC1)Nc1c2c(nc3ccccc13)N(Cc1ccccc1)CC2 as the compound, how does the Potency read?
A: Its Potency is inconclusive [inhibitor, partial curve].

Q: For OCC1(Cc2ccccc2Cl)CCN(C/C=C/c2ccccc2)CC1, which Potency is on record?
A: Its Potency is inconclusive [inhibitor, single point].

Q: For C[C@@]12C(=O)Nc3ccc(Cl)cc3C(=O)N1[C@H]1c3cc(Br)ccc3OC[C@@H]1[C@@H]2c1ccccc1, which Potency is on record?
A: The Potency was inconclusive [inhibitor, single point].

Q: With Fc1ccccc1Cc1noc(CN2CCN(C/C=C/c3ccccc3)CC2)n1 as the compound, how does the Potency read?
A: Its Potency is inconclusive [inhibitor, single point].

Q: For CCOc1ccc(/C=N/n2c(SC)nnc2-c2ccccc2)cc1OCC, which Potency is on record?
A: The Potency was inconclusive [inhibitor, single point].

Q: For CCOC(=O)c1ccc(N=c2sc(C(=O)OC)cc(=O)n2C2CC2)cc1, which “activity change, negative = inhibition” value is on record?
A: Its value is inactive: -5.27%.

Q: Which Potency does the source give for CCCn1c2c(c(O)c(C(=O)NCc3ccccc3)c1=O)CCCC2 here?
A: The Potency was active: 5.01 µM.

Q: With CC(C)(C)n1cnc2cc(NC(=O)c3ccccc3)ccc21 as the compound, how does the Potency read?
A: The Potency was inconclusive [inhibitor, full curve, poor fit].

Q: Which Potency does the source give for COc1ccc(N(C(=O)c2snc(C(N)=O)c2N)C(C(=O)NCc2ccccc2)c2ccc(O)cc2)cc1 (centres undefined) here?
A: The Potency was inconclusive [inhibitor, single point].

Q: For COc1ccc(NC(=O)CN(C)C(=O)C2(c3ccccc3)CCCC2)cc1, which activity change, negative = inhibition is on record?
A: Its activity change, negative = inhibition is inconclusive: -30.7% [inhibitor].

Q: For Cn1c(=O)c2c(nc(CN3CCN(c4ccc(F)cc4)CC3)n2Cc2ccccc2F)n(C)c1=O, which Potency is on record?
A: Its Potency is inconclusive [inhibitor, partial curve].

Q: With C/C=C/c1ccc(OCC(=O)Nc2cc(S(=O)(=O)N3CCOCC3)ccc2N2CCCC2)c(OC)c1 as the compound, how does the Potency read?
A: Its Potency is active: 10 µM.

Q: For O=C(N/N=C\c1cccnc1)c1cc(-c2ccccc2)nc2c(Cl)cccc12, which Potency is on record?
A: Its Potency is inconclusive [inhibitor, single point].

Q: With COC(=O)c1sc(NC(=O)COc2cccnc2[N+](=O)[O-])c(C(=O)OC)c1C as the compound, how does the Potency read?
A: Its Potency is inconclusive [inhibitor, full curve].

Q: Which Potency does the source give for Cc1ccc(NS(=O)(=O)c2ccc(-c3cnc(C4CC4)o3)cc2)cc1 here?
A: The Potency was inconclusive [inhibitor, partial curve].

Q: With Cc1cc(C(C)(C)C)cc(C)c1S(=O)(=O)N1CC(=O)Nc2ccccc21 as the compound, how does the Potency read?
A: Its Potency is inconclusive [inhibitor, single point].

Q: For Nc1c(N(CCC2=CCCCC2)C(=O)Cc2ccccc2F)c(=O)[nH]c(=O)n1Cc1ccccc1, which Potency is on record?
A: The Potency was inconclusive [inhibitor, single point].

Q: For O=C(O)Cc1ccc(C(=O)c2ccc(F)cc2)s1, which Potency is on record?
A: The Potency was inconclusive [inhibitor, single point].

Q: Which “activity change, negative = inhibition” value does the source give for C=CCN(C(=O)c1csnn1)C(C(=O)NC1CCCC1)c1c(F)cccc1Cl (centres undefined) here?
A: Its value is inactive: 13.1%.

Q: With CCCCN(C)CCCNC(=O)Cn1c(=O)sc2ccccc21 as the compound, how does the Potency read?
A: The Potency was inconclusive [inhibitor, partial curve, poor fit].

Q: Which Potency does the source give for COc1ccc(C2NCc3ccc4c(c3-n3cccc32)OCO4)cc1O (centres undefined) here?
A: Its Potency is active: 0.562 µM.

Q: Which Potency does the source give for CCN(C(=O)c1cc2c(=O)[nH]c3ccc(C)cc3c2s1)c1ccc(F)cc1 here?
A: The Potency was inconclusive [inhibitor, partial curve, poor fit].

Q: With CCN(CC)S(=O)(=O)c1ccc(N2CCN(S(=O)(=O)c3ccccc3C#N)CC2)nc1 as the compound, how does the Potency read?
A: Its Potency is inconclusive [inhibitor, single point].

Q: For O=C(c1ccco1)N(CCCN1CCOCC1)c1nc(-c2ccc(F)cc2)cs1, which Potency is on record?
A: Its Potency is active: 11.2 µM.

Q: With CCCNC(=O)CCn1nc(-c2ccc(C)cc2)c2ccccc2c1=O as the compound, how does the “activity change, negative = inhibition” value read?
A: The value was inactive: -18%.

Q: For O=[N+]([O-])c1cc(S(=O)(=O)C(F)(F)F)ccc1Sc1nc2ccccc2[nH]1, which Potency is on record?
A: Its Potency is inconclusive [inhibitor, single point].

Q: Which Potency does the source give for Cc1nn(Cc2ccccc2)c(C)c1NC(=O)c1cc2nc(-c3ccco3)cc(C(F)(F)F)n2n1 here?
A: The Potency was inconclusive [inhibitor, partial curve, poor fit].

Q: For Cc1nc(NC(=O)CSc2ccccc2N)sc1C, which Potency is on record?
A: The Potency was inconclusive [inhibitor, single point].

Q: For Cc1cccc(N(Cc2ccc(Cl)cc2)S(C)(=O)=O)c1, which “activity change, negative = inhibition” value is on record?
A: The value was inactive: 10.7%.

Q: For CCc1ccc(Nc2nc(N3CCOCC3)nc(N3CCOCC3)n2)cc1, which Potency is on record?
A: Its Potency is inconclusive [inhibitor, full curve].

Q: For CCCc1ccc2oc(C(=O)N3CCC(O)CC3)c(C)c2c1, which Potency is on record?
A: Its Potency is inconclusive [inhibitor, partial curve].

Q: For CC1CCc2c(sc(NC(=O)C3CCCO3)c2C#N)C1 (centres undefined), which Potency is on record?
A: The Potency was inconclusive [inhibitor, single point].

Q: Which Potency does the source give for COc1ccc(OC)c(C(C)NC(=O)C23CC4CC(CC(C4)C2)C3)c1 (centres undefined) here?
A: The Potency was inconclusive [inhibitor, single point].

Q: With COC(=O)c1c(C)[nH]c(O)c1C=Nc1ccc(C#N)cc1 as the compound, how does the “activity change, negative = inhibition” value read?
A: The value was inactive: -11.6%.
